# Screen size: about 310,000 compounds; about 2,200 (0.71%) showed an effect of 50% or more. The effect is printed as a negative number. The list shows a part of the results.
# Target: human ether-à-go-go-related gene (hERG) potassium channel (human, UniProt Q12809)
# Test: primary screen, population patch clamp on CHO cells stably expressing hERG
# Sequence of human ether-à-go-go-related gene (hERG) potassium channel (Q12809 whole entry, looked up): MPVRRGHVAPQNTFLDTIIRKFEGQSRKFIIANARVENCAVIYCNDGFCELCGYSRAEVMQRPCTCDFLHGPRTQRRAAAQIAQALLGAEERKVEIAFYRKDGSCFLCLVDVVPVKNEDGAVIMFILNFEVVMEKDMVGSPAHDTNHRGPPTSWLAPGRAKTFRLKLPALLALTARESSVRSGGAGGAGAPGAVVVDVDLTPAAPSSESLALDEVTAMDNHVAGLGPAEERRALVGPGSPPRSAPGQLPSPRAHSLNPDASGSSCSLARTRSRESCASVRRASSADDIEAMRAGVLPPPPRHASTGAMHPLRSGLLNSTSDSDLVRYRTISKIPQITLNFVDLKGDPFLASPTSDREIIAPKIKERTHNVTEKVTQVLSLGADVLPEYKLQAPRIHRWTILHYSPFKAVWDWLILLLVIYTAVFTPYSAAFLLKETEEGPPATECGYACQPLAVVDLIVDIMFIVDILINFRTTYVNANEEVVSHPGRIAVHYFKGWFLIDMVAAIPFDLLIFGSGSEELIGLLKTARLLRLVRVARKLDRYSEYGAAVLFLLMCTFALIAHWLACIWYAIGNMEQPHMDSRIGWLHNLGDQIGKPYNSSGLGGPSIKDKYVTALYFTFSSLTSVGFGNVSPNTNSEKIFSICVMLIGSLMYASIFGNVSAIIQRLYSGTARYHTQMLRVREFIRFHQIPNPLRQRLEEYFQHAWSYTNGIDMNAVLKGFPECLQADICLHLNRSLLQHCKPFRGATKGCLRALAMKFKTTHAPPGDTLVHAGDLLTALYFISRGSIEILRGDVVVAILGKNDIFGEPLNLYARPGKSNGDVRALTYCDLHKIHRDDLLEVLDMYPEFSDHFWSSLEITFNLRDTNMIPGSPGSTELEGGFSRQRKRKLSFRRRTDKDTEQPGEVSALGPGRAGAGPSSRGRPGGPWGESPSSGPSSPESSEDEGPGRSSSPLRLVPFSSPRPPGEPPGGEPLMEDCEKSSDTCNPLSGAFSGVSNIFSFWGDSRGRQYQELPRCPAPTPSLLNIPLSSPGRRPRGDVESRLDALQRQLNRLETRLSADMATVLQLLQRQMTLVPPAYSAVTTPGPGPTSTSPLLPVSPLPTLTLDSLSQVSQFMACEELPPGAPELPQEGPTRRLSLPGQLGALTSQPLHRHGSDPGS
row,SMILES,"hERG current change (%, negative = inhibition) at 1uM [%]"
1,CCOc1ccc(S(=O)(=O)NC(C)C)cc1C(N)=O,19.5
2,COc1cccc2cc(C(=O)NCc3ccc(Cl)cc3)c(=O)oc12,12.9
3,CCc1c2c(nc3ccc(OC(=O)N4CCC(N5CCCCC5)CC4)cc13)-c1cc3c(c(=O)n1C2)COC(=O)[C@]3(O)CC.Cl.O,14.7
4,CC(=O)OC1CC(C)N(C(=O)c2ccccc2)c2ccc(C)cc21 (stereo not drawn),10.1
5,Cc1cccc[n+]1CC(=O)Nc1ccc([N+](=O)[O-])cc1.[Cl-],16.9
6,CCCCCCc1cc2cc(-c3nnc(-c4ccccc4)o3)c(=O)oc2cc1O,6.28
7,Cc1cc(C(=O)COC(=O)Cc2n[nH]c(=O)c3ccccc23)c(C)n1-c1cccc(C(F)(F)F)c1,2.72
8,Cc1ccc(S(=O)(=O)N2CC(C)C(=O)CC2C)cc1 (stereo not drawn),13.9
9,O=C(COC(=O)c1cc([N+](=O)[O-])ccc1NCCO)c1ccccc1,1.96
10,O=C(NCCSc1ccccn1)c1ccc(Cl)cc1Cl,4.3
11,CC(NC(=O)c1cc2ccccc2o1)C(=O)O (stereo not drawn),11.2
12,Cc1nonc1OCC(C)(COc1nonc1C)NC(=O)c1ccc(Cl)cc1,-6.2
13,O=c1c(C(c2ccccc2)c2c(O)nc3n(c2=O)CCS3)c(O)nc2n1CCS2,9.9
14,COc1ccc(/C=C/C(=O)Oc2ccc(C)c(C)c2)cc1OC,-1.74
15,Cc1nnc(N)s1,9.41
16,Cc1cc(C)nc(SCC(=O)NN=C2CCCC2)n1,10.2
17,CN(C)C(CNC(=O)c1ccc(NC(=O)CC#N)cc1)c1ccccc1 (stereo not drawn),4.16
18,COc1ccc(N2C(=O)CC(C)(C)CC2=O)cc1OC,11.1
19,O=C(NCc1ccco1)C1CCN(S(=O)(=O)c2ccc(-n3cnnn3)cc2)CC1,-62.1

row,SMILES,"hERG current change (%, negative = inhibition) at 1uM [%]"
1,CCN(CC(=O)Nc1ccc(NC(C)=O)cc1)C(=O)Cc1cccc2ccccc12,0.896
2,Cc1ccc(OCCC(=O)N(CC(=O)Nc2ccccc2C(F)(F)F)Cc2ccco2)cc1,10.5
3,O=C(C1=C[C@@H](C2CC2)C[C@@H](OCc2ccc(CO)cc2)O1)N1CCN(Cc2ccc3c(c2)OCO3)CC1,-9.63
4,O=S(=O)(c1ccc(S(=O)(=O)N2CCC(O)CC2)cc1)N1CCCC1,19
5,CSc1nc2ccc(NC(=O)c3cc4ccccc4o3)cc2s1,17.2
6,COc1ccc(CN2C(=O)/C(=C/c3ccncc3)SC2=S)cc1,13.7
7,Fc1ccc(COc2ccc(C(=S)N3CCCC3)cc2)cc1,13
8,Cc1nn(C)cc1CN(C)C(=O)CCc1nnc(CCC2CCCCC2)o1,6.75
9,N#CC[C@H](Cc1ccccc1)N1CC[C@@H](O)CCC1=O,2.82
10,COc1ccc(OCCSc2nc(C)nc3ccccc23)cc1,26.2
11,Cc1cc(C(=O)CSc2nnc(N)s2)c(C)n1Cc1cccs1,7.32
12,COc1ccc(CCNC(=O)C2=COCCO2)cc1,20.3
13,Cc1cc(NC(CC(C)C)C(=O)O)nc(Cc2ccccc2)n1 (stereo not drawn),12.6
14,COc1cccc(C2C(C#N)=C(N)OC(C(C)(C)C)=C2C#N)c1 (stereo not drawn),-2.93
15,COc1ccc(C2C(C(=O)N3CCOCC3)CCC(=O)N2c2ccc(OC)cc2)cc1 (stereo not drawn),17.2
16,Cc1ccc(/C(O)=C2\C(=O)C(=O)N(c3cc(C)on3)C2c2cccc(Br)c2)cc1 (stereo not drawn),12.2
17,CCOCc1nnc(NC(=O)CSCc2ccccc2)s1,4.56
18,Cn1c(=O)c2c(nc(N3CCCC3)n2C)n(C)c1=O,12.6
19,CN1CCN(c2ccccc2NC(=O)c2cc(Br)ccc2Cl)CC1,-53.1

row,SMILES,"hERG current change (%, negative = inhibition) at 1uM [%]"
1,COC(=O)C1=C(C)N(CCc2ccccc2)C(=O)C1(NS(=O)(=O)c1ccc(NC(C)=O)cc1)C(F)(F)F (stereo not drawn),-2.49
2,CCOc1ccccc1N1CCN(C(=O)c2c(-c3ccccc3Cl)noc2C)CC1,5.57
3,COCCNC(=O)c1onc(CSc2ccncc2)c1C(=O)NCCOC,22
4,CC(=O)NCCNC(=O)[C@H](Cc1ccccc1)NC(=O)c1cccs1,7.31
5,C=CCOc1ccc(/C=N/N2C(=O)C(CC(=O)Nc3ccc(F)cc3F)SC2=NC)cc1 (stereo not drawn),17.4
6,COc1cc(/C=N/N2CCN(c3ccccc3)CC2)ccc1OC(C)=O,6.78
7,CCCCCCN=Cc1c(O)n(C)c(=O)n(C)c1=O,12.7
8,Cc1ccc(CN2CCNC(=O)C2CC(=O)NC2CCCCCC2)cc1 (stereo not drawn),7.01
9,O=C(c1cc(S(=O)(=O)N2CCOCC2)ccc1F)N1CCN(Cc2ccccc2)CC1,-10.1
10,COC(=O)C1=C(C)N=C2SC(C#N)=C(N)N2C1c1cccc(OC)c1 (stereo not drawn),5.98
11,COc1cccc2c1OCC(C(=O)OCc1cccnc1)=C2,10.4
12,CC1=CC(=O)NP(=O)(Oc2ccc3ccccc3c2)N1 (stereo not drawn),3.53
13,CC1CCN(S(=O)(=O)c2ccc3c(c2)N(CC(=O)NCCCN(Cc2ccccc2)C(C)C)C(=O)CO3)CC1,3.08
14,Cc1ccc(CNC(=O)CCS(=O)(=O)c2ccc(Cl)cc2)cc1,3.3
15,Cc1cc(C)cc(NC(=O)CSc2nc(CSc3ccc(Cl)cc3)cc(=O)[nH]2)c1,5.09
16,CC(C)c1ccc(N(CC(=O)NC2CCCC2)C(=O)CCC(=O)Nc2ccccn2)cc1,7.06
17,CCNc1cc(N2CCNCC2)ccc1[N+](=O)[O-],8.51
18,C=C(C)CN(CC)CCC(=O)Nc1ccc(OC)cc1OC.Cl,10
19,COc1ccc(S(=O)(=O)N2CCCCCC2)cc1C(=O)Nc1ccc(C)cn1,12.3

# Source: PMC4336329 (PLoS ONE, 2015)
